According to the supplement of paper PMC8728848:
The other results are listed elsewhere or left out.

Experiments:
Assay in all cases: glycan array binding signal (z-score within array); higher = stronger binding
Conditions in all cases: glycan notation: IUPAC condensed, linker removed
[1] = target: Gal(b1-3)GlcNAc(b1-2)Man(a1-3)[Gal(b1-3)GlcNAc(b1-2)Man(a1-6)]Man(b1-4)GlcNAc(b1-4)[Fuc(a1-6)]GlcNAc
Summary of the method: (§1)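 Glycan array binding is given as a within-array Z-score, which can be read as non-binding when negative. The arrays, 3228 of them, came from the Consortium for Functional Glycomics database and were retained only where the protein sequence was available. Z-scores were averaged across arrays of the same protein sequence at different concentrations or buffers and across linkers.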

[2] = target: Gal(b1-3)GlcNAc(b1-2)Man(a1-3)[GlcNAc(b1-4)][Gal(b1-3)GlcNAc(b1-2)Man(a1-6)]Man(b1-4)GlcNAc(b1-4)GlcNAc
Summary of the method: as §1

[3] = target: Gal(b1-3)GlcNAc(b1-2)[Gal(b1-3)GlcNAc(b1-6)]Man(a1-6)[Gal(b1-3)GlcNAc(b1-2)Man(a1-3)]Man(b1-4)GlcNAc(b1-4)GlcNAc
Summary of the method: as §1

[4] = target: Gal(b1-3)GlcNAc(b1-3)Gal(b1-3)GlcNAc
Summary of the method: as §1

[5] = target: Gal(b1-3)GlcNAc(b1-3)Gal(b1-4)Glc
Summary of the method: as §1

[6] = target: Gal(b1-3)GlcNAc(b1-3)Gal(b1-4)GlcNAc
Summary of the method: as §1

[7] = target: Gal(b1-3)GlcNAc(b1-3)Gal(b1-4)GlcNAc(b1-2)Man(a1-3)[Gal(b1-3)GlcNAc(b1-3)Gal(b1-4)GlcNAc(b1-2)Man(a1-6)]Man(b1-4)GlcNAc(b1-4)GlcNAc
Summary of the method: as §1

[8] = target: Gal(b1-3)GlcNAc(b1-3)Gal(b1-4)GlcNAc(b1-2)[Gal(b1-3)GlcNAc(b1-3)Gal(b1-4)GlcNAc(b1-6)]Man(a1-6)[Gal(b1-3)GlcNAc(b1-3)Gal(b1-4)GlcNAc(b1-2)Man(a1-3)]Man(b1-4)GlcNAc(b1-4)[Fuc(a1-6)]GlcNAc
Summary of the method: as §1

[9] = target: Gal(b1-3)GlcNAc(b1-3)Gal(b1-4)GlcNAc(b1-3)Gal(b1-4)GlcNAc(b1-2)[Gal(b1-3)GlcNAc(b1-3)Gal(b1-4)GlcNAc(b1-3)Gal(b1-4)GlcNAc(b1-6)]Man(a1-6)[Gal(b1-3)GlcNAc(b1-3)Gal(b1-4)GlcNAc(b1-3)Gal(b1-4)GlcNAc(b1-2)Man(a1-3)]Man(b1-4)GlcNAc(b1-4)[Fuc(a1-6)]GlcNAc
Summary of the method: as §1

[10] = target: Gal(b1-3)GlcNAc(b1-3)Gal(b1-4)GlcNAc(b1-6)[Gal(b1-3)GlcNAc(b1-3)]Gal(b1-4)Glc
Summary of the method: as §1

[11] = target: Gal(b1-3)GlcNAc(b1-3)Gal(b1-4)[Fuc(a1-3)]GlcNAc
Summary of the method: as §1

[12] = target: Gal(b1-3)GlcNAc(b1-3)Gal(b1-4)[Fuc(a1-3)]GlcNAc(b1-6)[Gal(b1-3)GlcNAc(b1-3)]Gal(b1-4)Glc
Summary of the method: as §1

[13] = target: Gal(b1-3)GlcNAc(b1-3)GalNAc
Summary of the method: as §1

[14] = target: Gal(b1-3)GlcNAc(b1-6)Gal(b1-4)GlcNAc
Summary of the method: as §1

[15] = target: Gal(b1-3)GlcNAc(b1-6)GalNAc
Summary of the method: as §1

[16] = target: Gal(b1-3)GlcNAc(b1-6)[Gal(b1-3)]GalNAc
Summary of the method: as §1

Gal(b1-3)GlcNAc6S = target: Gal(b1-3)GlcNAc6S
Summary of the method: as §1

[17] = target: Gal(b1-3)[Fuc(a1-4)]GlcNAc
Summary of the method: as §1

[18] = target: Gal(b1-3)[Fuc(a1-4)]GlcNAc(b1-2)Man
Summary of the method: as §1

[19] = target: Gal(b1-3)[Fuc(a1-4)]GlcNAc(b1-2)Man(a1-3)[Gal(b1-3)[Fuc(a1-4)]GlcNAc(b1-2)Man(a1-6)]Man(b1-4)GlcNAc(b1-4)[Fuc(a1-6)]GlcNAc
Summary of the method: as §1

[20] = target: Gal(b1-3)[Fuc(a1-4)]GlcNAc(b1-3)Gal(b1-3)[Fuc(a1-4)]GlcNAc
Summary of the method: as §1

[21] = target: Gal(b1-3)[Fuc(a1-4)]GlcNAc(b1-3)Gal(b1-4)[Fuc(a1-3)]GlcNAc
Summary of the method: as §1

[22] = target: Gal(b1-3)[Fuc(a1-4)]GlcNAc(b1-6)GalNAc
Summary of the method: as §1

[23] = target: Gal(b1-3)[GlcNAc(b1-6)]GalNAc
Summary of the method: as §1

[24] = target: Gal(b1-3)[Neu5Ac(a2-6)]GalNAc
Summary of the method: as §1

[25] = target: Gal(b1-3)[Neu5Ac(a2-6)]GlcNAc(b1-4)Gal(b1-4)Glc
Summary of the method: as §1

[26] = target: Gal(b1-3)[Neu5Ac(b2-6)]GalNAc
Summary of the method: as §1

Gal(b1-4)Gal = target: Gal(b1-4)Gal
Summary of the method: as §1

[27] = target: Gal(b1-4)GalNAc(a1-3)[Fuc(a1-2)]Gal(b1-4)GlcNAc
Summary of the method: as §1

[28] = target: Gal(b1-4)GalNAc(b1-3)[Fuc(a1-2)]Gal(b1-4)GlcNAc
Summary of the method: as §1

Gal(b1-4)Glc = target: Gal(b1-4)Glc
Summary of the method: as §1

Gal(b1-4)Glc6S = target: Gal(b1-4)Glc6S
Summary of the method: as §1

Gal(b1-4)GlcNAc = target: Gal(b1-4)GlcNAc
Summary of the method: as §1

[29] = target: Gal(b1-4)GlcNAc(a1-6)Gal(b1-4)GlcNAc
Summary of the method: as §1

Gal(b1-4)GlcNAc(b1-2)Man = target: Gal(b1-4)GlcNAc(b1-2)Man
Summary of the method: as §1

[30] = target: Gal(b1-4)GlcNAc(b1-2)Man(a1-3)Man(b1-4)GlcNAc(b1-4)GlcNAc
Summary of the method: as §1

[31] = target: Gal(b1-4)GlcNAc(b1-2)Man(a1-3)[Gal(b1-4)GlcNAc(b1-2)Man(a1-6)]Man(b1-4)GlcNAc(b1-4)GlcNAc
Summary of the method: as §1

B1: GS13846A-bth-444-19-444 (Bacteroides thetaiotaomicron) (protein)
chain: SCENEFDVSDKADSLISVTVNTLNNQAAYNVGETAQAELWIQRGGLKDASGKVQFVVDPLLLDSLNQEDKTNYELLPENCYEMTNTEFTVDKNELCGYITYHPEKILALSAYNETKYVLPLRLISNDLAINPARNTSFLAFTILEPIVHISNAGVYNINPDLTSTMDIQIGVPFTNKWDILCNLTEDLSLIDEYNQINKVNFTLLPENAYTAPESVTLQEGVSQITASYQLKNNLVPGNYILPIKIGSITASQGGVPNNSLVIDEESNVLFCIVKEGNKINKSGWEVIECSSEHAGNEATYMIDDNESTYWHCKFKNEAGSSVPPFHFIIDMKKEITIAQIDLLNRGDGAANNIKWVEFYASNNNSEWDKIGAGDFNDEGTRATFRYYVKSTKARYLKLIIPEGYGNNCPPAAIRELTVYGLEGNN
Question: With B1 as the binder, how does the “glycan array binding signal (z-score)” value [1] read?
Answer: The value was 3.4.

Question: What about the “glycan array binding signal (z-score)” value [2] of the same binder?
Answer: The value was -0.009.

Question: And the “glycan array binding signal (z-score)” value [3]?
Answer: Its value is -0.163.

Question: What about the “glycan array binding signal (z-score)” value [4] of the same binder?
Answer: Its value is -0.243.

Question: And the “glycan array binding signal (z-score)” value [5]?
Answer: The value was -0.265.

Question: What about the “glycan array binding signal (z-score)” value [6] of the same binder?
Answer: The value was -0.42.

Question: What about the “glycan array binding signal (z-score)” value [7] of the same binder?
Answer: Its value is 0.024.

Question: What about the “glycan array binding signal (z-score)” value [8] of the same binder?
Answer: The value was 0.215.

Question: And the “glycan array binding signal (z-score)” value [9]?
Answer: The value was 1.15.

Question: And the “glycan array binding signal (z-score)” value [10]?
Answer: The value was -0.016.

Question: What about the “glycan array binding signal (z-score)” value [11] of the same binder?
Answer: Its value is 0.028.

Question: What about the “glycan array binding signal (z-score)” value [12] of the same binder?
Answer: The value was -0.305.

Question: What about the “glycan array binding signal (z-score)” value [13] of the same binder?
Answer: The value was 0.045.

Question: And the “glycan array binding signal (z-score)” value [14]?
Answer: The value was 0.481.

Question: What about the “glycan array binding signal (z-score)” value [15] of the same binder?
Answer: Its value is -0.105.

Question: And the “glycan array binding signal (z-score)” value [16]?
Answer: Its value is -0.028.

Question: And the “glycan array binding signal (z-score)” value (Gal(b1-3)GlcNAc6S)?
Answer: The value was -0.3.

Question: And the “glycan array binding signal (z-score)” value [17]?
Answer: The value was -0.189.

Question: What about the “glycan array binding signal (z-score)” value [18] of the same binder?
Answer: The value was -0.058.

Question: And the “glycan array binding signal (z-score)” value [19]?
Answer: Its value is 0.111.

Question: What about the “glycan array binding signal (z-score)” value [20] of the same binder?
Answer: The value was -0.326.

Question: And the “glycan array binding signal (z-score)” value [21]?
Answer: The value was -0.475.

Question: What about the “glycan array binding signal (z-score)” value [22] of the same binder?
Answer: Its value is -0.199.

Question: And the “glycan array binding signal (z-score)” value [23]?
Answer: The value was -0.285.

Question: And the “glycan array binding signal (z-score)” value [24]?
Answer: The value was -0.253.

Question: And the “glycan array binding signal (z-score)” value [25]?
Answer: Its value is 0.053.

Question: And the “glycan array binding signal (z-score)” value [26]?
Answer: The value was -0.333.

Question: What about the “glycan array binding signal (z-score)” value (Gal(b1-4)Gal) of the same binder?
Answer: Its value is 1.07.

Question: And the “glycan array binding signal (z-score)” value [27]?
Answer: The value was -0.207.

Question: What about the “glycan array binding signal (z-score)” value [28] of the same binder?
Answer: Its value is -0.133.

Question: What about the “glycan array binding signal (z-score)” value (Gal(b1-4)Glc) of the same binder?
Answer: The value was -0.452.

Question: What about the “glycan array binding signal (z-score)” value (Gal(b1-4)Glc6S) of the same binder?
Answer: Its value is -0.184.

Question: What about the “glycan array binding signal (z-score)” value (Gal(b1-4)GlcNAc) of the same binder?
Answer: Its value is -0.328.

Question: And the “glycan array binding signal (z-score)” value [29]?
Answer: Its value is -0.193.

Question: What about the “glycan array binding signal (z-score)” value (Gal(b1-4)GlcNAc(b1-2)Man) of the same binder?
Answer: Its value is -0.06.

Question: And the “glycan array binding signal (z-score)” value [30]?
Answer: Its value is -0.063.

Question: And the “glycan array binding signal (z-score)” value [31]?
Answer: The value was 0.043.
